Target: T1, His-tagged full-length DDX3 (amino acids 1-662) (human, UniProt O00571 1-662)
T1 construct: Expressed in MDA231, HEK293A or NIH3T3 cells by transfection; also called recombinant DDX3; wild-type DDX3; not shown: N-terminal 6-His tag from the pcDNA3.1-His vector
Test: co-immunoprecipitation, co-transfected 3T3 cells

binding result: no binding
B1: Mutant DR5 with a truncation of […] (D7) (receptor)
chain: not shown
notes: Internal deletion; otherwise whole receptor, expressed in NIH3T3 cells; also called […]
